In all, about 410,000 compounds went through this assay and about 5,000 (1.2%) were called active. This list was built around the results that the source calls inconclusive (neither active nor inactive); the mix of calls is not that of the screen. Calls come from the whole dose curve; as a rule, active = well fitted inhibition curve with a large enough effect; inconclusive = small, poorly fitted or top-dose-only effect; inactive = no such curve, though single readings can be large or run the other way. Potencies of inconclusive entries are doubtful fits and often do not repeat.
Test: qHTS for Inhibitors of TGF-b; note: nearly all actives have a fitted effect of over 65% in size
Details: HepG2 CAGA-GFP TGF-b/SMAD3 reporter, GFP fluorescence, 18 h, TGF-beta stimulated, 500 pg/mL final; series mostly up to 46.1 µM; activity, negative = inhibition: at the top concentration
Method in brief: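 Using HEPG2 CAGA-GFP reporter cells at 1000 cells/well, we pinned test compounds, stimulated with recombinant TGF-beta (500 pg/mL final) and measured total well GFP after 18 h.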
% is set by controls: 0 for no effect and ±100 for the full control effect; potency is the fitted concentration of half-maximal effect; tags give direction and shape of the fitted curve.

Row | SMILES | Potency | activity, negative = inhibition
1 | COc1ccc(OC(F)(F)F)cc1CC1(C)C(=O)Nc2ccc(S(=O)(=O)NC3CCCCC3)cc21 (configuration not stated) | inconclusive: 28.2 µM [inhibitor, single point] | –
2 | Cc1cccc(NC(=S)NC(NC(=O)OCc2ccccc2)C(Cl)(Cl)Cl)c1 (configuration not stated) | inconclusive: 11.2 µM [inhibitor, single point] | –
3 | Cn1c(SCc2ccc(F)cc2)nc2ccc(C(=O)NCc3ccc(F)cc3)cc21 | inconclusive: 35.5 µM [inhibitor, single point] | –
4 | Cc1ccc(/C=C/C2=NN(Cc3ccccc3Cl)C(=O)CC2)cc1 | inconclusive: 12.6 µM [inhibitor, partial curve, poor fit] | –
5 | COc1cc(OC)nc(Nc2nc(C(N)COCc3ccccc3)cs2)n1 (configuration not stated) | inconclusive: 22.4 µM [inhibitor, single point] | –
6 | O=C(NCCOc1ccccc1F)c1cccc(S(=O)(=O)N2CCN(c3ccccc3)CC2)c1 | inconclusive: 7.08 µM [inhibitor, partial curve, poor fit] | –
7 | CCN(CC)CCN(C(=O)c1ccco1)c1nc2ccc(Cl)cc2s1 | inconclusive: 35.5 µM [inhibitor, single point] | –
8 | Cc1ccc(C)c(NC(=O)c2cc(-c3cc(C)ccc3O)n[nH]2)c1 | inconclusive: 35.5 µM [inhibitor, single point] | –
9 | O=C(C[C@@H]1C/C=C\C[C@@H](Cc2ccc(F)cc2)C(=O)OC[C@H]2CCCN2C1=O)N[C@H](CO)Cc1ccccc1 | inconclusive: 35.5 µM [inhibitor, single point] | –
10 | CCOc1ccc(C(=O)NCC(c2ccco2)N2CCOCC2)cc1 (configuration not stated) | inconclusive: 3.16 µM [inhibitor, single point] | –
11 | COC(=O)c1ccccc1NC(=O)C1CC(=O)N(c2ccc(C)cc2)C1 (configuration not stated) | – | inactive: -0.423%
12 | S=c1[nH]nc(CN2CCCCC2)n1-c1ccc(Cl)cc1 | – | inactive: 5.11%
13 | CCCSc1n[nH]c(NC(C)=O)n1 | inconclusive: 0.1 µM [inhibitor, full curve, poor fit] | –
14 | Cc1ccc(-n2nnnc2SCC#N)cc1 | inconclusive: 2.82 µM [inhibitor, single point] | –
15 | Cc1ccc(S(=O)(=O)NC(C(=O)Oc2ccc3c(C(F)(F)F)cc(=O)oc3c2)c2ccccc2)cc1 (configuration not stated) | inconclusive: 5.62 µM [inhibitor, single point] | –
16 | O=S(=O)(Nc1ccc(Cl)cc1NS(=O)(=O)c1ccccc1)c1ccccc1 | inconclusive: 12.6 µM [inhibitor, partial curve, poor fit] | –
17 | Cc1nn(-c2ccccc2)c(C)c1/C=N/NC(=O)c1cc(-c2cccs2)[nH]n1 | inconclusive: 14.1 µM [inhibitor, partial curve] | –
